Laboratory results as given in patent publication US20210380680A1 (ZLLP, published 2021).

Target: human Claudin 18.2 (CLDN18.2) (human, UniProt P56856-2 1-261)
Experiment: cell-based or functional assay

ADC IC50, HEK293-CLDN18.2, DAR 3.57: 0.44 nM | ADC IC50, HEK293-CLDN18.2, DAR 3.7: 0.35 nM | ADC IC50, HEK293-CLDN18.2, DAR 3.94: 0.38 nM | ADC IC50, NCI-N87-CLDN18.2, DAR 3.57: 10.8 nM | ADC IC50, NCI-N87-CLDN18.2, DAR 3.7: 9 nM | ADC IC50, NCI-N87-CLDN18.2, DAR 3.94: 7.6 nM | ADC IC50, NUGC4-CLDN18.2, DAR 3.57: 25.6 nM | ADC IC50, NUGC4-CLDN18.2, DAR 3.7: 21.7 nM | ADC IC50, NUGC4-CLDN18.2, DAR 3.94: 20.1 nM | ADC IC50, Panc1-CLDN18.2, DAR 3.57: 1.5 nM | ADC IC50, Panc1-CLDN18.2, DAR 3.7: 1.1 nM | ADC IC50, Panc1-CLDN18.2, DAR 3.94: 1.3 nM
B1: 282A12F3 (T62A)-vcMMAE (other)
heavy: QVQLKESGPVLVQPSQTLSLTCTVAGFSLTSYNVYWVRQPPGKGLEWMGVIWNTGATRYNSALKSRLSISKDTSKSQVFLKMNSLQTEDTATYYCARDSAMPAIPFAYWGQGTLVTVSS[in this place human IgG1 constant region]
light: DIVMTQSPSSLAVSAGETVTINCKSSQSLFGSVRQKNYLAWYQQKPGQSPKLLIYLASTRESGVPDRFIGSGSGTDFTLTISSVQAEDLAKYYCQQYYDIPWTFGGGTKLELKRTVAAPSVFIFPPSDEQLKSGTASVVCLLNNFYPREAKVQWKVDNALQSGNSQESVTEQDSKDSTYSLSSTLTLSKADYEKHKVYACEVTHQGLSSPVTKSFNRGEC
modifications: mc-vc-PAB-MMAE on reduced cysteines, average DAR 3.57, 3.70 or 3.94
